# Data taken from the supplement of paper PMC7335073.
# In all, about 4,100 sequences were measured (“relative CpG methylation activity (normalised to average over all NNNCGNNN flanks)”: median about 0.87, highest 2% from about 2.4 on). The list shows a part of the results.
# Target: DNMT3A catalytic domain (mouse) (UniProt O88508)
# Experiment: relative CpG methylation activity (normalised to average over all NNNCGNNN flanks) (relative (1 = mean)); higher = more methylation of the central CpG
# Details: system: in vitro, murine catalytic domain; CpG state: hemimethylated substrate pool; residues: 608-908
# Experimental: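 Deep enzymology: a pool of dsDNA substrates with a central CpG flanked by 10 random nucleotides on each side was methylated by the murine DNMT3A or DNMT3B catalytic domain (0.8 mM SAM, 37 °C, 60 min). Methylation was then read out by hairpin ligation, bisulfite conversion and NGS. Values are the average methylation of each NNNCGNNN context (±3 flanks; the outer flanks are random and averaged over), normalised to the overall mean, so 1 = average activity.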
row,Sequence,relative CpG methylation activity
1,TAGCGCGT,0.44
2,TTTCGAGC,1.36
3,ATCCGCTC,2.37
4,CTACGTGT,1.07
5,CATCGGCA,0.688
6,CAACGAAG,0.407
7,TTCCGTAG,1.16
8,GAGCGCCT,1.95
9,GAACGTCA,1.21
10,ACACGTGT,0.793
11,TTACGTGA,1.35
12,GGGCGCAC,0.992
13,GCGCGTTA,0.739
14,TCGCGGGG,0.455
15,CAGCGATG,0.355
16,GCACGTAG,1.1
17,CCCCGCTC,2.05
18,CCACGGAC,1.87
19,ACGCGGGC,0.651
20,GACCGTAC,0.889
21,AGTCGCTA,0.625
22,TGCCGAAC,1.18
23,GCTCGTGT,0.455
24,TGTCGGCG,0.274
25,ACCCGGAC,1.26

row,Sequence,relative CpG methylation activity
1,TCGCGCAT,0.694
2,ACCCGTAA,1.35
3,GTACGTAC,1.62
4,CGTCGGCC,1.19
5,TGTCGTGA,0.426
6,AACCGTGA,0.361
7,TCACGTTT,0.84
8,ATACGGTT,1.52
9,CAGCGGAG,0.181
10,GACCGGAC,1.12
11,CAGCGCAT,0.685
12,GACCGACC,1.32
13,GTTCGTGA,0.867
14,ACCCGACT,1.63
15,TCACGTTC,1.59
16,GTGCGCTG,1.96
17,CCGCGCAT,0.849
18,CTGCGCGC,1.65
19,AGTCGAGT,0.202
20,TAACGATT,0.7
21,TATCGGAC,0.455
22,ATGCGGAC,1.15
23,CATCGGCG,0.7
24,CGTCGGTT,0.338
25,TCTCGCAG,0.474

row,Sequence,relative CpG methylation activity
1,GCTCGGAA,0.694
2,GCGCGAAA,1.33
3,GGTCGCCG,1.12
4,TCTCGCCC,1.75
5,TAACGTCC,1.6
6,ATCCGCCC,2.96
7,ACACGCAC,1.72
8,ATGCGGAG,0.64
9,AGACGTAC,0.913
10,CGCCGTGC,0.381
11,GCTCGCGA,0.766
12,TCGCGTGA,0.318
13,GAACGGGT,0.55
14,CATCGCCA,1.26
15,GTGCGGAC,1.42
16,GTTCGTGG,0.122
17,TGGCGTTG,0.385
18,AGGCGTGA,0.18
19,TGGCGTAA,0.472
20,TAACGGCT,0.878
21,CTCCGGCC,2.01
22,AACCGATC,1.34
23,ACACGGAC,1.51
24,GACCGGTC,1.01
25,TTTCGCAT,1.15

row,Sequence,relative CpG methylation activity
1,GACCGGGT,0.652
2,CACCGAAC,1.18
3,CCCCGTTC,1.46
4,AACCGTAC,0.749
5,GGCCGGTC,0.797
6,GGGCGGGA,0.476
7,GCACGACG,0.957
8,GGGCGCAT,1.04
9,TCCCGTGG,0.213
10,AACCGGCA,0.893
11,GAGCGTTT,0.114
12,CGGCGCGG,0.0694
13,CGCCGTCA,1.44
14,GAGCGCGA,0.709
15,TGACGGTG,0.444
16,GGCCGGCT,0.794
17,CCGCGCCC,2
18,TCCCGTCC,1.69
19,ATCCGTTT,1.21
20,CAGCGAGT,0.222
21,TGCCGAAT,0.723
22,CCTCGGTA,0.971
23,ATACGTGA,1.2
24,GGGCGTAG,0.488
25,GCGCGTAA,1.15

row,Sequence,relative CpG methylation activity
1,TGTCGGAG,0.025
2,GTCCGGAG,0.714
3,GAACGAGC,1.12
4,GCACGCTC,1.98
5,CCTCGTGG,0.455
6,GGCCGCGG,0.347
7,ATACGCAA,1.73
8,TGGCGCGT,0.455
9,ACCCGAGT,1.17
10,GTGCGGCG,1.52
11,CCGCGTTG,0.667
12,ACTCGGGC,0.99
13,CCACGTAT,1.19
14,TCGCGCCA,1.52
15,TCACGGAG,0.781
16,TGGCGTTT,0.246
17,CGTCGGCG,0.658
18,TTACGACA,2.29
19,AGTCGATC,0.609
20,TCCCGGGC,0.909
21,TCGCGAGG,0.431
22,TTCCGAGA,1.52
23,TCCCGACA,1.52
24,CTTCGTGC,0.758
25,CAACGGAC,0.974

row,Sequence,relative CpG methylation activity
1,CGCCGCAG,0.38
2,CCGCGGGT,1.11
3,TTCCGATT,1.53
4,AAACGGCT,0.837
5,GCACGCAA,1.49
6,CTACGCTT,2.38
7,CTGCGTCC,2.14
8,ATGCGAGA,1.24
9,CACCGTGG,0.145
10,GCGCGGTC,0.979
11,GGGCGCCT,1.57
12,CGGCGGGC,0.606
13,ACTCGGTT,0.391
14,TCACGACG,1.37
15,ACTCGGGA,0.476
16,TACCGCGT,0.602
17,TCACGCAG,0.929
18,GAGCGTGA,0.466
19,TGACGTTT,0.561
20,ATGCGTGC,1.08
21,TACCGGGC,0.455
22,TCGCGTTT,0.46
23,AGGCGAAA,0.861
24,TAGCGATA,0.467
25,GGTCGTAG,0.145

row,Sequence,relative CpG methylation activity
1,GGGCGAAC,1.22
2,CACCGGAC,0.809
3,CGGCGACT,0.787
4,ATACGACC,2.41
5,ATTCGTGT,0.417
6,AAGCGAAC,1.02
7,CAACGTAC,0.934
8,CTGCGGAA,0.784
9,TTTCGCGC,1.16
10,AGGCGGCT,0.933
11,GTACGGCT,1.97
12,GATCGGCC,0.492
13,GTTCGTCC,1.56
14,CCTCGTGA,0.701
15,AACCGAAC,1.62
16,CCTCGAAC,1.4
17,AAGCGGAA,0.607
18,GGTCGATG,0.241
19,CAACGAAA,0.685
20,AGCCGTGA,0.258
21,TAGCGTTC,0.524
22,ACACGGGA,0.876
23,AACCGACA,1.27
24,GCCCGGGA,1.08
25,CCCCGCGC,1.17

row,Sequence,relative CpG methylation activity
1,CACCGTTT,0.474
2,AAGCGTCC,1.22
3,CTACGTAC,1.9
4,CGGCGCAT,0.484
5,ATTCGTCT,1.65
6,GTACGCAA,1.89
7,TATCGGTC,0.637
8,TCTCGATT,1.15
9,GTACGGGG,1.06
10,GTGCGGCT,1.07
11,CTTCGCCA,2.15
12,ACGCGTCC,1.53
13,TCGCGTAT,0.522
14,AGGCGCAT,0.493
15,GTTCGCCC,2.25
16,GTTCGGCG,1.45
17,CAACGTTA,0.594
18,CTACGACA,2.18
19,TCGCGTTG,0.608
20,TTTCGTCC,1.65
21,AGGCGCGA,0.508
22,CACCGACC,1.1
23,AGTCGCGT,0.385
24,TGCCGGCT,0.855
25,TAGCGCGC,0.503

row,Sequence,relative CpG methylation activity
1,CTACGTCT,2.45
2,CGACGGAC,0.879
3,GATCGTTT,0.404
4,TTCCGCCT,2.6
5,TCCCGACG,1.06
6,GGACGAAG,0.2
7,TCGCGCGT,0.856
8,ATCCGTAC,1.07
9,TGGCGCCT,1.31
10,AGGCGGTC,0.722
11,CCTCGCGA,1.03
12,ATACGATC,2.12
13,TTGCGAAA,1.55
14,ATACGTAT,1.35
15,GACCGGGC,1.11
16,CCACGTAA,1.59
17,TGCCGGGG,0.238
18,AGACGAGA,0.731
19,CCGCGTTT,0.526
20,GTGCGGAT,0.725
21,ATGCGTTG,0.99
22,GGTCGCCT,1.48
23,GCACGGGG,0.633
24,CTTCGCGC,1.34
25,CCACGCCG,1.71

row,Sequence,relative CpG methylation activity
1,CAGCGATA,0.439
2,TTACGTCG,2.52
3,TTACGCGT,1.81
4,TGGCGGGT,0.455
5,CCTCGTTC,1.08
6,TTTCGAAA,1.06
7,AGCCGATG,0.521
8,GTCCGCGC,2.12
9,AGACGTGA,0.553
10,TTTCGATT,0.862
11,CATCGATT,0.297
12,AGACGGTT,0.458
13,GTTCGTAG,0.538
14,TTTCGATA,1.06
15,TACCGGCA,0.625
16,CACCGGTC,1.07
17,TCTCGTTA,1.25
18,ATACGAGT,1.56
19,ACACGCAA,1.53
20,AGACGTAT,0.427
21,ACCCGTAC,0.962
22,AGGCGGGC,0.431
23,GATCGTCT,0.727
24,CCCCGTCA,1.79
25,CTACGAAA,2.07

row,Sequence,relative CpG methylation activity
1,CCGCGGAA,0.965
2,CACCGTGC,0.391
3,CCACGTTA,1.24
4,ATCCGTGC,0.749
5,CGGCGGAA,0.813
6,CCACGAGA,0.981
7,ATACGACT,1.67
8,AGGCGCCG,1.52
9,TTGCGTGC,0.811
10,CATCGACG,0.36
11,GCTCGATA,0.724
12,TAACGAAT,0.438
13,GTCCGGGT,1.36
14,CGACGTCC,1.22
15,GCTCGAGA,0.685
16,GACCGAAA,1.26
17,CCGCGGGA,0.714
18,TTTCGCGA,0.905
19,AGGCGGTG,0.455
20,GTTCGCGG,0.25
21,ACACGGCC,1.64
22,ACTCGAAT,0.8
23,GTGCGACG,1.11
24,AGTCGTTC,0.333
25,CACCGTAA,1.01

row,Sequence,relative CpG methylation activity
1,CAACGCGT,0.588
2,ATCCGTAG,0.856
3,CCTCGACA,1.18
4,CGACGACC,0.792
5,TAACGATG,0.405
6,AGCCGGAA,0.699
7,GCCCGGCC,0.951
8,ATCCGAGT,1.82
9,TGTCGTCA,1.08
10,CCGCGTAT,0.434
11,TAGCGATC,0.803
12,TCACGACA,1.52
13,TTACGAAA,2.02
14,TATCGAGT,0.591
15,CGACGTGA,0.326
16,CATCGCGA,0.837
17,GATCGGGA,0.388
18,CTGCGTTT,1.38
19,GGGCGTCG,0.833
20,TTTCGGTT,0.461
21,GGACGTAT,0.21
22,ACGCGGAT,0.705
23,CGTCGGGA,0.538
24,CGTCGCGT,0.727
25,TGCCGTTC,1.05

row,Sequence,relative CpG methylation activity
1,CACCGCTA,0.836
2,TCACGTAA,1.62
3,AACCGGTG,0.625
4,AGACGAGG,0.444
5,GCACGATG,0.592
6,AGACGCCG,1.3
7,TAGCGCCA,0.576
8,AGACGTTG,0.379
9,ACCCGTTG,0.669
10,TTTCGGAT,0.634
11,CCCCGTAA,1.55
12,GTCCGGGA,1.28
13,TTCCGTCG,2.09
14,CCCCGTAG,0.788
15,ACCCGGTC,1.19
16,AGCCGCTA,1.03
17,GCGCGAGT,0.631
18,TGACGAGA,0.743
19,GCACGGCA,1.26
20,TCACGAGC,1.97
21,TATCGACG,0.444
22,GCTCGCAC,1.53
23,AGACGACG,0.755
24,AATCGTGG,0.0455
25,GGTCGGGC,0.678

row,Sequence,relative CpG methylation activity
1,CTCCGAAG,1.01
2,GAACGACG,0.645
3,CATCGGTC,1.11
4,CGCCGTCG,0.955
5,TCGCGCTA,1.32
6,TCCCGATC,1.63
7,TATCGAAA,0.519
8,AGGCGGCC,0.941
9,GAGCGCGC,0.65
10,TACCGCCG,1.3
11,AAACGTAT,0.468
12,TTCCGCCG,2.55
13,TATCGCTG,1.22
14,ATACGGGC,1.93
15,GATCGACA,0.553
16,ATTCGTAC,1.14
17,GTACGCCG,1.9
18,ATTCGCTC,1.94
19,CTGCGACG,1.45
